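Test compounds were applied to cells in 96-well plates for 48 hours at 5 doses. Abbreviation: GI50, concentration required for 50% inhibition of growth. TGI: concentration producing complete growth inhibition.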
Tested on: NCI-H322M lung
Assay: NCI-60 cell line screen, 48 h

`O=C(Nc1ccc(-c2ccc3c(c2)NC(=O)/C3=C\c2ccc[nH]2)cc1)Nc1ccc(Cl)c(C(F)(F)F)c1` showed a GI50 of 1.63 µM and a TGI of 11.3 µM.

— PubChem BioAssay (NCI)
